Source: the supplement of paper PMC4967469
pIC50: −log10 of the molar value. The IC50 comes from the fitted curve, where viability falls to half of the control; a limit (>, <) means that the fit lies beyond the doses tested. AUC sums up the same curve from the lowest dose to the 256-fold higher top dose; the more sensitive the line, the further below 1.

Compound: N#CC[C@H](C1CCCC1)n1cc(-c2ncnc3[nH]ccc23)cn1 [Ruxolitinib]
Assay: Viability of human cancer cell lines after 72 h of drug (GDSC screen)
Description: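 Human cancer cell lines in 384-well plates, medium with 10% serum, drug for 72 h over a 256-fold dose range (nine 2-fold or five 4-fold steps up to the top dose). Adherent lines were fixed and stained with the nucleic acid dye Syto60, suspension lines read with resazurin; signal relative to control wells, capped at 0 and 100%. One two-parameter sigmoid per drug and line, fitted in a mixed model over all curves with the slope shared within a line.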

Cell Line	AUC	pIC50
CaR-1 (large intestine, adherent, top dose 5.24 µM)	0.974	< 5.28
Calu-3 (lung adenocarcinoma, adherent, top dose 5.24 µM)	0.983	< 5.28
Caov-3 (ovary, adherent, top dose 5.24 µM)	0.989	< 5.28
Caov-4 (ovary, adherent, top dose 5.24 µM)	0.972	< 5.28
Capan-2 (pancreas, adherent, top dose 5.24 µM)	0.984	< 5.28
ChaGo-K-1 (non-small cell lung carcinoma, adherent, top dose 5.24 µM)	0.983	< 5.28
D-247MG (glioma, adherent, top dose 5.24 µM)	0.959	< 5.28
D-263MG (glioma, adherent, top dose 5.24 µM)	0.983	< 5.28
D-283MED (medulloblastoma, adherent, top dose 5.24 µM)	0.991	< 5.28
D-336MG (glioma, adherent, top dose 5.24 µM)	0.976	< 5.28
D-392MG (glioma, adherent, top dose 5.24 µM)	0.979	< 5.28
D-423MG (glioma, adherent, top dose 5.24 µM)	0.981	< 5.28
D-502MG (glioma, adherent, top dose 5.24 µM)	0.974	< 5.28
D-542MG (glioma, adherent, top dose 5.24 µM)	0.982	< 5.28
D-566MG (glioma, adherent, top dose 5.24 µM)	0.986	< 5.28
DAN-G (pancreas, adherent, top dose 5.24 µM)	0.991	< 5.28
DB (B-cell lymphoma, suspension, top dose 5.24 µM)	0.983	< 5.28

Cell Line	AUC	pIC50
DBTRG-05MG (glioma, adherent, top dose 5.24 µM)	0.984	< 5.28
DEL (lymphoid neoplasm, suspension, top dose 5.24 µM)	0.966	< 5.28
DG-75 (Burkitt lymphoma, suspension, top dose 5.24 µM)	0.985	< 5.28
DJM-1 (skin, adherent, top dose 5.24 µM)	0.989	< 5.28
DK-MG (glioma, adherent, top dose 5.24 µM)	0.973	< 5.28
DMS-53 (small cell lung carcinoma, adherent, top dose 5.24 µM)	0.987	< 5.28
DMS-79 (small cell lung carcinoma, suspension, top dose 5.24 µM)	0.979	< 5.28
DMS-114 (small cell lung carcinoma, adherent, top dose 5.24 µM)	0.984	< 5.28
DMS-273 (small cell lung carcinoma, adherent, top dose 5.24 µM)	0.969	< 5.28
DND-41 (T-cell leukaemia, suspension, top dose 5.24 µM)	0.433	6.66
DOK (head and neck, adherent, top dose 5.24 µM)	0.976	< 5.28
DOV13 (ovary, adherent, top dose 5.24 µM)	0.981	< 5.28
DSH1 (bladder, adherent, top dose 5.24 µM)	0.989	< 5.28
DU-4475 (breast, suspension, top dose 5.24 µM)	0.992	< 5.28
Daoy (medulloblastoma, adherent, top dose 5.24 µM)	0.988	< 5.28
Daudi (Burkitt lymphoma, suspension, top dose 5.24 µM)	0.988	< 5.28
